Assay results taken from PubChem BioAssay AID1768 (National Center for Advancing Translational Sciences (NCATS), 2009).
Where “and” joins values, the source holds several entries; their conditions need not be identical. Equal values may be shown once. The campaign covered roughly 270,000 compounds. About 620 (0.23%) were called active. Inconclusive means that the source gave no clear call. Such entries were picked first, then a sample of the others. Calls come from the whole dose curve; as a rule, active = well fitted inhibition curve with a large enough effect in the polarisation, with a control signal flat (not every such curve was filed as active); inconclusive = small, poorly fitted or top-dose-only effect, or effect the other way, or a change in a side signal; inactive = no such curve, though single readings can be large or run the other way; the % refers to the polarisation. A potency beside an inconclusive call is a rough fit, not a confirmed value. “Side channel” marks fits to a control or component signal instead of the main read-out.

target: Menin (Homo sapiens) (UniProt O00255); assay: qHTS Assay for Inhibitors Targeting the Menin-MLL Interaction in MLL Related Leukemias: Competition With Texas Red Labeled MLL-derived Mutant Peptide; details: fluorescence polarization; FP activity change, negative = inhibition: at 61.6 µM (top of the series); for FP activity change, negative = inhibition: % of control where 0% means no effect
Sequence of UniProt O00255 (O00255 whole entry, looked up): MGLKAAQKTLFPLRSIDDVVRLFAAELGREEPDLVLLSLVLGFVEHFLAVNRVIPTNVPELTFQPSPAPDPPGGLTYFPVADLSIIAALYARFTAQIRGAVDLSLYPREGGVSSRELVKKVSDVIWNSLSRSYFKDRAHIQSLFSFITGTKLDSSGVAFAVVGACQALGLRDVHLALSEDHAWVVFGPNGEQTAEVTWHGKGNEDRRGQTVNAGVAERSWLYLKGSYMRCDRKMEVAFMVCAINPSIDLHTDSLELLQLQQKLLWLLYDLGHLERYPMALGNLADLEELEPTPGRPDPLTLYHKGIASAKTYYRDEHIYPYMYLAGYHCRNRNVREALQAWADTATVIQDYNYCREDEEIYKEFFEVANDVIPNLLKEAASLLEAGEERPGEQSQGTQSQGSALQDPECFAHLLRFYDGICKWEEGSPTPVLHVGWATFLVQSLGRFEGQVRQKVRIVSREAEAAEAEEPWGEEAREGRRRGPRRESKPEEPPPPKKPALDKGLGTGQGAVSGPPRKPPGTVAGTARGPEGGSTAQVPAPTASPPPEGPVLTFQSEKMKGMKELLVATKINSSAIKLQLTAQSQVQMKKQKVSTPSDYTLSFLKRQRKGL
Potency is the fitted concentration of half-maximal effect; tags give direction and shape of the fitted curve or compound fluorescence and quenching.

Potency, inconclusive:
O=C(CSc1nnc2c(n1)[nH]c1ccc(S(=O)(=O)N3CCOCC3)cc12)Nc1ccc(F)c(F)c1 2.51 µM [quencher, side channel, full curve, poor fit], O=C(COC(=O)c1ncc(Cl)c(Cl)c1Cl)c1ccc(Cl)s1 4.47 µM [inhibitor, single point], CCN1CCN(CCNC(=O)c2ccc(/C=C3/Sc4ccccc4N(Cc4cccc(Cl)c4)C3=O)cc2)CC1 3.55 µM [fluorescent, side channel, full curve, poor fit], Cn1cnnc1SCC(=O)Nc1ccc2nc(SCc3ccccc3F)sc2c1 15.8 µM [quencher, side channel, partial curve], CCN1C(=O)S/C(=C/c2c(OCc3ccc(C(=O)O)cc3)ccc3ccccc23)C1=O 20 µM [quencher, side channel, partial curve], CCCCn1c(NC(C)=O)c(C#N)c2nc3ccccc3nc21 10 µM [quencher, side channel, partial curve], COc1cnc(-c2ccccn2)nc1Sc1c(Cl)cccc1Cl 2.51 µM [inhibitor, partial curve], COc1ccc(O[C@H]2C=C[C@@H](c3ccccc3)O[C@@H]2COC(=O)CC/C(C)=N/OC[C@@H](O)COCc2ccco2)cc1 3.55 µM [fluorescent, side channel, full curve], COc1ccc(CCCc2nnc(SCC(=O)Nc3nc(C)cs3)n2C)cc1 3.55 µM [fluorescent, side channel, partial curve], O=C1OC2(CCCCC2)OC(=O)C1=CNc1ccc2c(c1)OCO2 20 µM [fluorescent, side channel, partial curve], CCc1cccc(NC(=O)c2ccc(NS(=O)(=O)c3c(C)noc3C)cc2)c1 12.6 µM [quencher, side channel, partial curve], COc1ccccc1-c1c(C)oc2cc(OCC(=O)OCc3ccccc3)ccc2c1=O 31.6 µM [fluorescent, side channel, partial curve], CC(Oc1ccc(Cl)cc1Cl)c1nc(-c2ccc(NC(=O)c3ccncc3)cc2)no1 (stereo unspecified) 35.5 µM [quencher, side channel, single point], O=C(O)c1ccccc1NC(=O)c1ccccc1Nc1ccccc1 2 µM [quencher, side channel, full curve], COc1ccc2[nH]c(=O)c(NC(N)=S)nc2c1 39.8 µM [quencher, side channel, single point], CC1CCN(c2cc(C#N)c(C#N)cc2[N+](=O)[O-])CC1 39.8 µM [inhibitor, single point], O=C(Nc1cccc([N+](=O)[O-])c1)c1ccc(CSc2ccccc2)cc1 7.94 µM [quencher, side channel, full curve], CCCCOc1ccc(CN2CCC(O)CC2)cc1 39.8 µM [inhibitor, single point], Cc1ccc(CNCC(O)(c2ccccc2)c2ccccc2)cc1 8.91 µM [fluorescent, side channel, full curve, poor fit], O=[N+]([O-])c1ccc2nc(SCc3cn4cc(Cl)ccc4n3)[nH]c2c1 28.2 µM [quencher, side channel, single point], CN(/N=C/c1ccc(-c2ccc([N+](=O)[O-])cc2)o1)c1ccccc1 8.91 µM [quencher, side channel, partial curve], Cc1[nH]c2ccccc2c1/C=C/c1nc2ccccc2c(=O)n1CCO 3.98 µM [quencher, side channel, partial curve], COc1c(O)cc2c(=O)oc3c(OC)c(O)cc4c(=O)oc1c2c34 12.6 µM [quencher, side channel, partial curve], COc1ccc(NC(=O)CC2C(=O)N(c3ccc(Cl)cc3)C(=S)N2CCc2ccncc2)cc1 (stereo unspecified) 11.2 µM [quencher, side channel, partial curve], O=C(NCC1CCCO1)C(c1ccc(F)cc1)N(CCCN1CCOCC1)C(=O)c1ccc(-c2ccccc2)[nH]1 (stereo unspecified) 10 µM [fluorescent, side channel, partial curve], COc1ccc(OC)c2c(C)c(C)[nH]c12 22.4 µM [quencher, side channel, single point], CSc1nnc(-c2sccc2OCc2ccccc2)n1C 39.8 µM [inhibitor, single point], COc1ccc2nc(Nc3nc(-c4ccncc4)cs3)sc2c1 11.2 µM [quencher, side channel, partial curve], Cc1cc(C)nc(NS(=O)(=O)c2ccc(NC(=S)NC(=O)C(C)(C)C)cc2)n1 28.2 µM [fluorescent, side channel, partial curve], CC(C)CCNC(=S)Nc1ccc([N+](=O)[O-])cc1 25.1 µM [quencher, side channel, partial curve], S=C(NC1CCCCC1)N1CCN(c2ncccn2)CC1 39.8 µM [fluorescent, side channel, single point], CN(C)CC(CCC(CN(C)C)C(O)(c1ccccc1)c1ccccc1)C(O)(c1ccccc1)c1ccccc1 (stereo unspecified) 22.4 µM [inhibitor, partial curve], CNC(=O)C(=O)N/N=C/c1ccc(Br)cc1 35.5 µM [inhibitor, single point], Nc1nc(SCC(=O)c2cc3ccccc3o2)n[nH]1 39.8 µM [quencher, side channel, single point], COc1ccccc1Nc1c2c(nc3ccccc13)CCC2 39.8 µM [inhibitor, single point], CCOc1cc(/C=N/NC(=O)c2ccc(-c3csc(Nc4ccc(C)cc4)n3)cc2)ccc1OCC(=O)O 2.51 µM [quencher, side channel, full curve], Cc1ccccc1-n1nc2c(c1NC(=O)c1ccc(Br)o1)CSC2 31.6 µM [inhibitor, single point], COc1ccc(C(=O)NC(=S)NNC(=O)c2c(-c3ccccc3)noc2C)cc1 31.6 µM [quencher, side channel, single point], Cc1onc(-c2ccccc2Cl)c1C(=O)NCCn1c(C)cc2ccccc21 35.5 µM [fluorescent, side channel, single point], COc1cc(CNC2CCCCCCC2)cc(Cl)c1OC 28.2 µM [inhibitor, partial curve, poor fit], COc1ccc(CNC(=O)CN(C)Cc2ccc(C(C)(C)C)cc2)cc1 20 µM [fluorescent, side channel, partial curve], Nc1cccc(Nc2ccccc2)c1 7.94 µM [quencher, side channel, partial curve], O=[N+]([O-])c1ccccc1/C=C/C=N/n1c(-c2ccco2)n[nH]c1=S 39.8 µM [quencher, side channel, single point], COc1ccc(CCNCC(O)COc2ccc(OC)cc2C(C)(C)C)cc1 (stereo unspecified) 12.6 µM [inhibitor, partial curve, poor fit], Cc1cc(C)cc(N(CC(=O)N2CCC(C)CC2)S(=O)(=O)c2ccccc2)c1 39.8 µM [inhibitor, single point], Nc1c(C(O)(C(F)(F)F)C(F)(F)F)cc(C(O)(C(F)(F)F)C(F)(F)F)c2ccccc12 11.2 µM [quencher, side channel, partial curve], COc1ccccc1-n1c(SCC(=O)Nc2ccc(C)cc2)nc(O)cc1=O 2.51 µM [quencher, side channel, partial curve, poor fit], O=C(Nc1ccc(S(=O)(=O)Nc2cnc3ccccc3n2)cc1)c1ccc(Cl)c([N+](=O)[O-])c1 25.1 µM [quencher, side channel, partial curve], CCOc1ccccc1/C=N/Nc1ccccc1[N+](=O)[O-] 14.1 µM [quencher, side channel, partial curve], O=C(O)c1ccccc1-c1c2ccc(=O)cc-2oc2cc(O)ccc12 35.5 µM [fluorescent, side channel, partial curve] and 39.8 µM [fluorescent, side channel, single point]

FP activity change, negative = inhibition, inactive:
O=C(NC1CCCC1)c1ccc(CSc2nc3ccncc3n2Cc2ccc(F)cc2)cc1 1.75%, O=C(Cn1cnc2ccccc21)Nc1ccc(SC(F)F)cc1 -0.688%, O=c1cc(-c2ccccc2)[nH]c2nc3ccccc3n12 -11.4%, CC(C)CNC(=O)c1cccc(NC(=O)COc2ccc([N+](=O)[O-])cc2)c1 1.28%, CC(C)[C@H](NC(=O)OC(C)(C)C)c1nnc(S(=O)(=O)Cc2c(F)cccc2Cl)o1 -5.72%, COc1cc(NC(=O)c2ccc3c(c2)OCO3)ccc1NC(=O)C(C)C 1.74%
